Assay results reported in the supplement of paper PMC3334620.
Whole data set: some 33,000 sequences, median “E-score (-0.5 to 0.5)” near -0.012, cut for the highest 2% near 0.27. The list shows a part of the results.

Each sequence was assayed against T1, Vhr1 (UniProt P40522) (assay: PBM E-score (8-mer binding enrichment) (E-score (-0.5 to 0.5)); higher = stronger / more preferred TF binding; most listed sequences are background and not binding sites). Conditions: protein concentration: 200 nM; construct: GST-full length.
T1 sequence: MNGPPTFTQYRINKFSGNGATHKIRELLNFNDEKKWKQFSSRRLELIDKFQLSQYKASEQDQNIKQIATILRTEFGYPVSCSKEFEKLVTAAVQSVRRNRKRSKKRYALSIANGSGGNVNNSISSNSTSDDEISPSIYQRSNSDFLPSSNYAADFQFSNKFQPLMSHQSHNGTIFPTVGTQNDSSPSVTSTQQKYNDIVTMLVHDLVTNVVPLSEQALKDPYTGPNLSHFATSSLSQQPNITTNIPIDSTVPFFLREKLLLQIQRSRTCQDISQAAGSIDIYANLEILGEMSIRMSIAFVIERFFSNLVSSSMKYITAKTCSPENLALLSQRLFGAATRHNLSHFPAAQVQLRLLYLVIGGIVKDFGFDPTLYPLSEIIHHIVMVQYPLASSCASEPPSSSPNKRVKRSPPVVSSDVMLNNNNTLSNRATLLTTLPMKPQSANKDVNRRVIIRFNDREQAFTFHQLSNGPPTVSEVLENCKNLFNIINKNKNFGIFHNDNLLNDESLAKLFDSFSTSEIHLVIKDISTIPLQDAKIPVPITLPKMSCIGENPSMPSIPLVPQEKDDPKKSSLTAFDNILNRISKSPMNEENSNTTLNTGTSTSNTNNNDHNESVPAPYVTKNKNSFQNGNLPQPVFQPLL
Protocol: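 Universal 'all 10-mer' protein binding microarrays (Agilent AMADID 015681) probed with GST-tagged S. cerevisiae TFs (full-length or DBD) made by in vitro transcription/translation (PURExpress), about 100-200 nM. Bound TF was detected with fluorescent anti-GST. Each ungapped 8-mer (which stands for itself and its reverse complement) is scored by the PBM enrichment score (E-score), a modified Wilcoxon-Mann-Whitney statistic from -0.5 to +0.5, computed with the Universal PBM Analysis Suite. Scale: above 0.35 generally sequence-specific binding.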

Sequence	PBM E-score
AAGCCTGG	0.0432
CCTGTGGC	-0.0931
CAAATCCC	-0.161
CTGTCCGA	-0.127
CACAAGAC	-0.0701
AACAGGCT	-0.0322
CATATCCA	0.103
ATTCTTTG	0.0125
ATTAAGGA	-0.105
AGCTGCGA	-0.0901
GCCATTCA	-0.052
GCTGATGA	0.185
CTAGTGAA	-0.158
CCAGGGAC	-0.101
ATGTCTTC	-0.127
ACCCAAAC	0.215
ATCCCCAC	0.122
CAACAGCA	0.0731
CAAACGAG	0.0174
ATATTGAA	0.0791
AATCATAG	0.329
GACCGGAC	0.0945
CTCTAATC	-0.015
CACGAGTC	0.324
ACCTTCGC	-0.0915

Sequence	PBM E-score
CAGCGGAG	0.00725
CAAAGTGG	-0.0313
AGTACGTA	-0.0558
GGTAGACC	0.00467
GTGACCGA	-0.0931
GACCGACC	0.13
AAGAGGCC	-0.218
AGCGCCCT	0.00481
GTTCGTGA	-0.00585
CAGGTCCA	-0.0638
CTTGCGCC	-0.0393
CACCACTG	-0.00719
ATCGACGA	-0.0477
CCGACTAC	0.269
ACGAAGCG	-0.0506
ACGAGAGG	-0.112
TACTTCTA	-0.0126
AATACAGA	-0.0844
CGTACATA	-0.0291
ACCCGACT	0.229
GCGAATCC	0.0147
AAGCCGAG	-0.0144
AGCGGTCA	0.0727
TCTATTCA	-0.0224
GGCTGACA	0.0588

Sequence	PBM E-score
CATTCGGC	0.035
AACGGGTC	-0.162
AGCAAGAT	0.0976
GTTTTGTA	0.146
GACGCGAC	-0.0185
CTCCCTTC	-0.0792
CTCTTGAC	-0.0604
AAAGCCCG	-0.072
AACATTCG	-0.00301
AATTACCG	-0.0559
GTTCAGAA	-0.155
AACAAGAA	-0.0092
AGTGGATG	0.0884
ACAGACCC	0.131
TACCTGAA	0.017
AAAGGTGG	-0.0416
ACGGCCTA	0.0178
AGATGGCA	-0.049
ACCTGAGC	0.0548
ACTCAGAT	0.251
ACGATTAA	0.09
TCCGCGCA	-0.031
AACTATCA	0.14
CTGCGCGC	0.247
GTATTACA	0.229

Sequence	PBM E-score
CGGTGCCA	-0.221
AACGTACG	-0.209
ACTGCCTG	0.156
ACGTGAAT	-0.0434
CGTCTACC	-0.153
GCGGCTAC	0.124
AAGTAGAT	0.0488
ACGATGCG	-0.0423
CGCTCACG	0.0319
CCAGTACA	0.163
ATCTTGAC	0.0163
AGGGGTTC	-0.119
AATTGGCA	-0.0116
GGTCCAGA	-0.0119
CGTGAATC	0.2
AGGTGGAC	-0.111
GTTCCGCA	0.0962
GAACGGTA	-0.136
AATCTCAG	-0.102
GCTTCACA	-0.176
ACTTCTTG	-0.106
AGTCGCAT	0.224
ATTATGAA	0.14
GCTCAAAC	-0.0721
GCGAGCAC	0.0621

Sequence	PBM E-score
GATGTCGC	-0.0292
GATTGGGA	-0.0169
CTCATACC	0.0653
CGCTAGTA	0.057
CTGGTGGC	0.105
CCGCCCCG	0.365
ATAAAATA	0.0515
AAACGTCC	-0.191
GTGTTCGA	0.0696
CGTTTTCA	-0.0454
CGGGAAAA	-0.0969
CCTATAAA	-0.2
GCCGGCGA	0.0498
AACATTTA	-0.0926
AGCCATGA	0.228
GGGAGCCC	-0.237
CTGTTGTA	0.0584
AAAGAACA	-0.189
TAACTTCA	-0.037
CAGATTAG	-0.0795
GACAACAA	0.145
AGAGATAT	-0.0397
GAGTGCAC	-0.0044
AATTTTCC	-0.108
AGTGAAGA	0.0113

Sequence	PBM E-score
AGCGGAAG	-0.158
ACGCAGCC	0.0794
AAATTAGT	0.123
AAAAGCCG	-0.0948
CCGCGCAC	0.237
AATCAAAA	-0.0307
CAATTAAC	0.018
CCCGCCGG	0.134
ACGTAGTC	0.186
GAGGCAGA	-0.159
ATTTTGCA	-0.149
GACCGGCC	-0.045
AGCCGTAT	-0.0187
CCAGTGCC	-0.015
CAGTGCAC	0.0386
ACCTGACC	0.11
AAAAACAC	-0.0576
GACCCCAC	0.114
ATACTTTG	0.163
GGTCGTGA	-0.0896
GAGAACCC	-0.185
TCAATGGA	0.0718
CTCTTATA	0.0819
AGATGCAG	-0.0102
AATTATCT	-0.0991

Sequence	PBM E-score
ACCGAACT	-0.0256
CTGGTTTC	-0.0225
AGCACAAC	0.0833
AAGGCTGA	-0.151
AAATTGTG	-0.111
AAGAACAC	-0.0115
CATAGGTA	-0.0408
ATTTGAGC	-0.0968
ACAGCCCA	-0.0494
CCGACCGG	0.114
CGATGCAA	-0.175
ATGACATA	0.122
ATTCGATG	0.0921
ATCGCTCA	0.147
GTAGCGTA	0.13
AGTGTGCA	0.00584
CAAGACGA	-0.109
ACGTTGAT	0.214
CTGGCGGC	0.0715
AGGTAATA	0.102
GTGGCCCA	-0.0875
ATCCCTCG	0.147
AGGCCACA	-0.0918
CAATGATA	0.211
ATTCTTCG	-0.173

Sequence	PBM E-score
GAGGCCAC	-0.0743
CGTGATAA	-0.0969
AGTTCACC	0.0852
GTTTGGTA	0.259
CCTCACAG	0.0151
AAAGCCTT	-0.212
CTGCATAA	0.163
CAAGACCC	-0.0994
AAGACTCG	0.0518
CAGCGCAG	0.117
CACGCTGA	-0.0324
TCCCCAAA	0.106
CGATTGTC	-0.129
CAAAAGCC	-0.286
CTGATCGA	0.0718
AATACAGC	0.0596
ACTTCATC	-0.251
GAAGGTAC	-0.116
AGGTCGTG	-0.00814
CCGCGGCG	0.166
CCAGTGAA	-0.127
GACGCCTA	-0.169
CAACGGCA	-0.0309
GGCAGTTA	-0.136
GATCGCAA	0.0651

Sequence	PBM E-score
GCCACGTA	-0.189
GGGAAATA	-0.0494
CTATCTGC	-0.153
CCCGCAGC	-0.0814
GACAGATA	0.13
GTCATTAA	0.206
CAGCTACG	-0.0492
CATGCTTC	0.00013
CGCGGTCC	-0.137
AAATGAAC	-0.11
GTTGGTTA	0.146
AGTCTTAT	0.079
AGTTTACG	-0.034
CTACGCAA	-0.0494
CCTAGCAG	-0.126
TAGAAAAA	-0.206
AACTATGA	0.22
GAACGTCC	-0.154
CCATCGAC	0.0267
